The values below come from PMC7005872.

Sequences of proteins named here, by UniProt entry; tags and fusion partners are left off. Residues count along the entry.
UniProt P05161, residues 1-157: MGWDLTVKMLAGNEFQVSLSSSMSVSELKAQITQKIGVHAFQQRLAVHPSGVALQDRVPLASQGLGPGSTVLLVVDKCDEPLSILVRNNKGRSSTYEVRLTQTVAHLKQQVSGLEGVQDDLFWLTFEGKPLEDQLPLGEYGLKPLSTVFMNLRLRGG
UniProt P61960: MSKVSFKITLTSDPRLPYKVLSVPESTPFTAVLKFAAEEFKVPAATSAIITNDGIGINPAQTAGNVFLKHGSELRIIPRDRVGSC

Substitutions are numbered along the chain they refer to. Results are given in words; binding and its absence hold for the method and conditions named. Binding seen in cells or lysates may run through a third protein. Some entries that bind do so weakly or less than the wild type. Sequences can lack the tags named with a protein.

Experiment [1] concerns the target T1, FLAG-TBK1 (TANK-binding kinase 1) (UniProt Q9UHD2).
T1 sequence: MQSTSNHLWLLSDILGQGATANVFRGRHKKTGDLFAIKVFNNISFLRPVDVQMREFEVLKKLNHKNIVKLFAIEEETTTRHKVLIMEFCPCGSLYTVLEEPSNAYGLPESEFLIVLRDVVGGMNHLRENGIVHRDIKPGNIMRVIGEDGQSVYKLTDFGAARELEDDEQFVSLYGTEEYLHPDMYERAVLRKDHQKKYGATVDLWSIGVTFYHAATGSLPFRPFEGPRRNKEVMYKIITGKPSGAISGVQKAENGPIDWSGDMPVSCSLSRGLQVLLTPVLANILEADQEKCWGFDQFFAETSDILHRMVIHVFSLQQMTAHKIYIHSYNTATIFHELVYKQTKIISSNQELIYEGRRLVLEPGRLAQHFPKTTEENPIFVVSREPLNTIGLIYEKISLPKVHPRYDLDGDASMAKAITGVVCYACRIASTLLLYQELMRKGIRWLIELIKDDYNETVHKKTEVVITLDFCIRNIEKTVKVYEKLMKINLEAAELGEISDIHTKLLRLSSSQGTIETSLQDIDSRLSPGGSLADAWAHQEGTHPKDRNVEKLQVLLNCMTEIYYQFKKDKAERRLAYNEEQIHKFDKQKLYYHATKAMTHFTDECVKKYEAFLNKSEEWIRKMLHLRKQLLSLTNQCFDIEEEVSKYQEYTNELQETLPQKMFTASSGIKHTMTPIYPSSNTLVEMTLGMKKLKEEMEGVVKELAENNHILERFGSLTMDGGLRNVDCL
Nature of the experiment: co-IP; transiently expressed tagged proteins; lysis in 10 mM Tris-HCl pH 7.4, 150 mM NaCl, 10 mM MgCl2, 1 mM EDTA, 1% Triton X-100; antibody 2 h and Protein G Sepharose 1 h at 4 °C; five washes; immunoblot. (In western blotting, separated proteins are transferred to a membrane and probed.)

The target of experiment [2] is GST-ISG15 (IFN-stimulated gene 15) (human) (UniProt P05161). Nature of the experiment: pull-down; beads coated with GST-fusion proteins incubated 2 h at 4 °C with lysate of transfected HeLa cells (50 mM HEPES pH 7.4, 250 mM NaCl, 10 mM MgCl2, 1% Triton X-100); five washes; immunoblot with anti-GFP; only the target purified.
Experiment [3] deals with GST-UFM1 (ubiquitin-fold modifier 1) (human) (UniProt P61960). The experiment is described as above.
A further experiment addresses T2, GFP-TBK1 S172A (UniProt Q9UHD2).
T2 sequence: T1 sequence with S172A
Nature of the experiment: co-IP; transiently expressed tagged proteins; lysis in 10 mM Tris-HCl pH 7.4, 150 mM NaCl, 10 mM MgCl2, 1 mM EDTA, 1% Triton X-100; antibody 2 h and Protein G Sepharose 1 h at 4 °C; five washes; immunoblot.

In another experiment the target is T3, GFP-TBK1 K38A (UniProt Q9UHD2).
T3 sequence: T1 sequence with K38A
The description is as above.

B1: GFP-TBC1D9 (TBC1 domain family member 9) (protein, UniProt Q6ZT07 1-1266)
chain: MWVNPEEVLLANALWITERANPYFILQRRKGHAGDGGGGGGLAGLLVGTLDVVLDSSARVAPYRILYQTPDSLVYWTIACGGSRKEITEHWEWLEQNLLQTLSIFENENDITTFVRGKIQGIIAEYNKINDVKEDDDTEKFKEAIVKFHRLFGMPEEEKLVNYYSCSYWKGKVPRQGWMYLSINHLCFYSFLMGREAKLVIRWVDITQLEKNATLLLPDVIKVSTRSSEHFFSVFLNINETFKLMEQLANIAMRQLLDNEGFEQDRSLPKLKRKSPKKVSALKRDLDARAKSERYRALFRLPKDEKLDGHTDCTLWTPFNKMHILGQMFVSTNYICFTSKEENLCSLIIPLREVTIVEKADSSSVLPSPLSISTRNRMTFLFANLKDRDFLVQRISDFLQQTTSKIYSDKEFAGSYNSSDDEVYSRPSSLVSSSPQRSTSSDADGERQFNLNGNSVPTATQTLMTMYRRRSPEEFNPKLAKEFLKEQAWKIHFAEYGQGICMYRTEKTRELVLKGIPESMRGELWLLLSGAINEKATHPGYYEDLVEKSMGKYNLATEEIERDLHRSLPEHPAFQNEMGIAALRRVLTAYAFRNPNIGYCQAMNIVTSVLLLYAKEEEAFWLLVALCERMLPDYYNTRVVGALVDQGVFEELARDYVPQLYDCMQDLGVISTISLSWFLTLFLSVMPFESAVVVVDCFFYEGIKVIFQLALAVLDANVDKLLNCKDDGEAMTVLGRYLDSVTNKDSTLPPIPHLHSLLSDDVEPYPEVDIFRLIRTSYEKFGTIRADLIEQMRFKQRLKVIQTLEDTTKRNVVRTIVTETSFTIDELEELYALFKAEHLTSCYWGGSSNALDRHDPSLPYLEQYRIDFEQFKGMFALLFPWACGTHSDVLASRLFQLLDENGDSLINFREFVSGLSAACHGDLTEKLKLLYKMHVLPEPSSDQDEPDSAFEATQYFFEDITPECTHVVGLDSRSKQGADDGFVTVSLKPDKGKRANSQENRNYLRLWTPENKSKSKNAKDLPKLNQGQFIELCKTMYNMFSEDPNEQELYHATAAVTSLLLEIGEVGKLFVAQPAKEGGSGGSGPSCHQGIPGVLFPKKGPGQPYVVESVEPLPASLAPDSEEHSLGGQMEDIKLEDSSPRDNGACSSMLISDDDTKDDSSMSSYSVLSAGSHEEDKLHCEDIGEDTVLVRSGQGTAALPRSTSLDRDWAITFEQFLASLLTEPALVKYFDKPVCMMARITSAKNIRMMGKPLTSASDYEISAMSG
As for B1, the binding result in experiment [1] was “binds”; in experiment [2] it was “no binding”; in experiment [3], “no binding”.

B2: FLAG-TBC1D9 (protein, UniProt Q6ZT07 1-1266)
chain: B1 chain
Regarding B2, the binding result in the experiment with GFP-TBK1 S172A is listed as “no binding”; in the experiment with GFP-TBK1 K38A it was “binds”.
